In all, about 210,000 compounds went through this assay and about 5,900 (2.8%) were called active. Inconclusive means that the source gave no clear call. Such entries were picked first, then a sample of the others. The call rests on the fitted dose curve; in most records, active means well fitted activation curve with a large enough effect; inconclusive means small, poorly fitted or top-dose-only effect; inactive means no such curve, though single readings can be large or run the other way. Potencies of inconclusive entries are doubtful fits and often do not repeat.
Assay: qHTS Assay for Enhancers of SMN2 Splice Variant Expression; further: nearly all actives have a fitted effect of over 55% in size; on activity change, positive = activation: % of control where 0% means no effect
Conditions: HEK293 SMN2-luciferase splicing reporter, luminescence, 30-36 h; activity change, positive = activation: at 46.1 µM (top of the series)
Procedure, shortened: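 HEK293 cells carry an SMN2 minigene-luciferase reporter in which exon 7 inclusion puts luciferase in frame. Cells were seeded at 2000 cells/well, attached for 10-12 hours, then exposed to compounds for 30-36 hours at 37C before ONE-Glo luminescence.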
Potency means the concentration at half of the fitted maximal effect; tags describe the fitted curve by direction and shape.

Row | Structure (SMILES) | activity change, positive = activation | Potency
1 | COc1ccc2nc(N3CCCC3)c(C#N)cc2c1 | inactive: -22.4% | –
2 | CSc1ccc(-c2nnn(CC(=O)NCc3ccccc3)n2)cc1 | – | inconclusive: 35.5 µM [activator, partial curve]
3 | Nc1cc(N)nc(SCc2cc(=O)oc3cc4c(cc23)CCC4)n1 | – | inconclusive: 14.1 µM [activator, partial curve]
4 | O=C(Nc1ccn(Cc2ccccc2)n1)c1cccc(F)c1 | – | active: 2.82 µM
5 | O=C(NC1CCCCC1)C(c1cccnc1)N(C(=O)CCl)c1ccccc1Cl (configuration not stated) | – | inconclusive: 0.891 µM [activator, partial curve]
6 | CCOC(=O)Cc1c(C)nc2c(-c3ccccc3)c(-c3ccccc3)[nH]n2c1=O | – | active: 4.47 µM
7 | S=C(NCc1ccccc1)N1CCn2cccc2C1c1cccnc1 (configuration not stated) | – | inconclusive: 14.1 µM [activator, single point]
8 | CC(C)c1ccc2occ(CC(=O)Nc3cccc(C(F)(F)F)c3)c2c1 | inactive: -46% | –
9 | COc1ccc(-c2csc(NC(=O)c3ccc(N4C(=O)CCC4=O)cc3)n2)cc1 | inactive: 2.76% | –
10 | Cc1ccc(S(=O)(=O)N/N=C/c2ccc(OS(=O)(=O)c3ccc(C)c([N+](=O)[O-])c3)cc2)cc1 | – | inconclusive: 5.62 µM [activator, single point]
11 | Cc1ccc(C(=O)O/N=C/c2c(Cl)n(C)c3ccccc23)cc1 | – | inconclusive: 5.62 µM [activator, single point]
12 | O=C(CN1C(=O)C2C3C=CC(C3)C2C1=O)NCCc1ccccc1 (configuration not stated) | – | inconclusive: 0.0282 µM [activator, full curve, poor fit]
13 | O=C(CC1Oc2ccccc2NC1=O)NCc1ccc(F)cc1 (configuration not stated) | inactive: 10.9% | –
14 | CC(C)CC(=O)Nc1ccc2nn(-c3ccccc3)nc2c1 | – | active: 6.31 µM
15 | CCN(CC)C(=O)C(=O)Nc1cccc(Br)c1 | – | inconclusive: 15.8 µM [activator, partial curve, poor fit]
16 | CCN(CC)C(=O)Oc1ccc2ccccc2c1Br | – | inconclusive: 31.6 µM [activator, single point]
17 | CCn1c(O)c(/C=C/C=C/C=Nc2ccccc2)sc1=S | inactive: -18.1% | –
18 | CCOc1cc(-c2noc(-c3cccnc3)n2)ccc1OC | inactive: 6.7% | –
19 | COc1ccc(NC(=O)NCCCN2CCCC2=O)cc1 | – | inconclusive: 15.8 µM [activator, partial curve, poor fit]
20 | Cc1cccc(NC(=O)C(Cc2ccccc2)n2cccc2)c1C (configuration not stated) | inactive: -17.3% | –
21 | O=C1CSC(=Nc2cc(Cl)ccc2Cl)N1 | – | inconclusive: 22.4 µM [activator, partial curve, poor fit]
22 | CCOC(=O)c1csc(NC(=O)c2ccccc2)n1 | – | active: 11.2 µM

Reference: PubChem BioAssay AID1458 (National Center for Advancing Translational Sciences (NCATS), 2008)
